Source: paper PMC4336329 (PLoS ONE, 2015)
Screen size: about 310,000 compounds; about 2,200 (0.71%) showed an effect of 50% or more. Effects have a minus sign here. Some of the results follow.

Biological target: human ether-à-go-go-related gene (hERG) potassium channel (human, UniProt Q12809)
Experiment: primary screen, population patch clamp on CHO cells stably expressing hERG

Chain of human ether-à-go-go-related gene (hERG) potassium channel (Q12809 whole entry, looked up): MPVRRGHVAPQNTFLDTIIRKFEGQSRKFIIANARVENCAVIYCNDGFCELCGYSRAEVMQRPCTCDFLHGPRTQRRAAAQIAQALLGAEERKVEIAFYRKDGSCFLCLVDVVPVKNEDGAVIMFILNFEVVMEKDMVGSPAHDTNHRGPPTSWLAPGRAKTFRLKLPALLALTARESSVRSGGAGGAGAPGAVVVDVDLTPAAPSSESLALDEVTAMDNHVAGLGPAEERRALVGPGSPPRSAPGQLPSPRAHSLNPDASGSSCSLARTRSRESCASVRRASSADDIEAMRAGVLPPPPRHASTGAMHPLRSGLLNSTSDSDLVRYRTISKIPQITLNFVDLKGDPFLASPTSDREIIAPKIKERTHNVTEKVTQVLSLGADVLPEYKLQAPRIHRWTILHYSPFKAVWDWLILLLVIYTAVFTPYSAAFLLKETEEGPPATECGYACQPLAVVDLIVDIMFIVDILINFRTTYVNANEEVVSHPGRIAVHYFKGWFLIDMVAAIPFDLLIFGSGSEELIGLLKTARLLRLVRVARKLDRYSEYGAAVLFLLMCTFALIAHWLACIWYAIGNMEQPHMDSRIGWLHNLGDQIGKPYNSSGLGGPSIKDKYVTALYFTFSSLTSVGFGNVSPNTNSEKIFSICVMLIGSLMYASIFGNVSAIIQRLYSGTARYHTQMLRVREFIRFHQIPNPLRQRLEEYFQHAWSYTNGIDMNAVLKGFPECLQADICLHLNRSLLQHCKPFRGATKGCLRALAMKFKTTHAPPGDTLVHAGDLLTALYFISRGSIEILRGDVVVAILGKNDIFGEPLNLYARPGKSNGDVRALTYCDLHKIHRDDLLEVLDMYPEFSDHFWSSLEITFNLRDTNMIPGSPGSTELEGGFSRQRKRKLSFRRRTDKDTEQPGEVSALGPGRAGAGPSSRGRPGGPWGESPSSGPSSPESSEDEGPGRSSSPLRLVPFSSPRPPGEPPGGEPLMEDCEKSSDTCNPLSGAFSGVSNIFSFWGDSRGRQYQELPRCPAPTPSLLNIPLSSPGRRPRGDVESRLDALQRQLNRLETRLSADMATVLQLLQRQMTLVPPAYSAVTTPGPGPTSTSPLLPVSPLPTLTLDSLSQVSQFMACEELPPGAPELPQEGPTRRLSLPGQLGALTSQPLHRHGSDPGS

Row | Structure (SMILES) | hERG current change (%, negative = inhibition) at 1uM
1 | COc1ccc(CNC(=O)COC(=O)[C@H](Cc2c[nH]c3ccccc23)NC(=O)c2cccs2)cc1 | 4.32%
2 | COc1cc2oc(=O)c(Br)c(C)c2c(OC)c1OC | 8.62%
3 | CC(C)C(=O)Nc1cccc(-c2csc(-c3ccccc3)n2)c1 | 9.18%
4 | O=C(CN(C(=O)CCC(=O)Nc1nccs1)c1ccc(F)cc1)NCC1CCCO1 (centres unmarked) | 14.7%
5 | CSc1cccc(NS(=O)(=O)c2cn(C)cn2)c1 | 10.2%
6 | COc1c(C)cccc1C(=O)NCc1ccc2c(c1)OCO2 | 7.84%
7 | Cc1ccccc1C1CC(c2ccc(Br)cc2)Nc2nc(N)nn21 (centres unmarked) | -16.6%
8 | COc1cccc(-c2cc(C(=O)N3CCCCCC3)no2)c1 | -0.492%
9 | COc1ccc(OC)c(-n2c(=S)[nH]c3cc(C(=O)N4CCC(C(N)=O)CC4)ccc3c2=O)c1 | 2.01%
10 | Cc1ccc(OCc2nnc(SCC(=O)Nc3nccs3)n2-c2ccccc2)cc1C | 11.5%
11 | COc1ccccc1NC(CC(=O)c1ccccc1)C(=O)OCC(=O)c1ccc(C)cc1 (centres unmarked) | 7.68%
12 | COc1cc2ccccc2cc1C(=O)Nc1ccc(S(=O)(=O)Nc2cc(C)on2)cc1 | 5.53%
13 | Cc1cccc(N=C/C(C(=O)C(F)(F)F)=C(\O)c2ccco2)c1 | 5.43%
14 | Cc1ccc(C)c(S(=O)(=O)NCc2ccc(C(=O)NCc3ccco3)cc2)c1 | -5.17%
15 | NNC(=O)c1nnn(-c2nonc2N)c1CN1CCCC1 | 7.77%
16 | Cc1cc(N2C(=O)CC(N3CCN(C(c4ccccc4)c4ccccc4)CC3)C2=O)no1 (centres unmarked) | 5.72%
17 | CS(=O)(=O)N(CC(=O)NCc1ccccn1)c1ccc2c(c1)OCCO2 | 7.58%
18 | COc1ccc(N(CC(=O)Nc2cc(OC)cc(OC)c2)S(=O)(=O)c2c(C)n[nH]c2C)cc1 | 15.7%
19 | Cc1ccc(NC(=O)CCn2cccc2)cc1F | 4.17%
20 | Cc1c(OCC(=O)NCCN2CCOCC2)ccc2c(-c3ccccc3)cc(=O)oc12 | 9.14%
21 | COc1ccc(CCNC(=O)Cc2nn(C)c(=O)c3ccccc23)cc1OC | -4.49%
22 | O=C(NCCN1C(=O)S/C(=C\c2ccc(Cl)cc2Cl)C1=O)C1=COCCO1 | 4.33%

Row | Structure (SMILES) | hERG current change (%, negative = inhibition) at 1uM
23 | O=c1c2ccccc2n2c(=S)[nH]nc2n1-c1ccccc1 | 25.1%
24 | CCc1c(C2(O)CCCCC2)[nH]c2c(C(=O)OC)cc(Cl)cc12 | 11.3%
25 | CCOC(=O)C1=C(COC(=O)COc2cc(C)ccc2C)NC(=O)NC1C (centres unmarked) | 6.04%
26 | CN(CCNC(=O)C1CC(=O)N(c2ccc(F)c(Cl)c2)C1)Cc1ccccc1 (centres unmarked) | -3.07%
27 | CS(=O)(=O)n1nc(-c2ccccc2)nc1NCc1ccco1 | 6.65%
28 | CCOc1ccccc1-c1n[nH]c(=S)o1 | 20%
29 | Cn1cc(Br)c(C(=O)NC(=S)N2CCN(c3ccccn3)CC2)n1 | 13.4%
30 | O=C(NCc1nc2ccccc2[nH]1)C1=C[C@H](c2ccccc2)C[C@H](OCCCCO)O1 | 4.57%
31 | Cc1cc(C)c2nc(N3CCN(C(=O)c4ccco4)CC3)sc2c1 | 0.971%
32 | Fc1ccc2c(c1)nnn2C1CCN(Cc2ccccc2)CC1 | -32.8%
33 | COC(=O)c1ccccc1NS(=O)(=O)c1ccc2[nH]c(=O)[nH]c2c1 | 10.4%
34 | COc1ccccc1N1CCN(S(=O)(=O)CCNC(=O)c2cc(=O)c3ccccc3o2)CC1 | 19.2%
35 | Cc1cc(C)n(C(C)CNS(=O)(=O)c2ccccc2)n1 (centres unmarked) | 13.6%
36 | CCN(CC)S(=O)(=O)c1ccc(Cl)nc1 | 8.21%
37 | CCN(CC)C(=O)COc1ccc(S(=O)(=O)N2CCOCC2)cc1 | -1.36%
38 | Cn1cc(S(=O)(=O)CC(=O)Nc2ccc3c(c2)OCO3)c2ccccc21 | -1.12%
39 | Cc1noc(C)c1C(=O)N1CCC(C(=O)c2ccccc2)CC1 | 0.0598%
40 | O=C(N/N=C/c1cccnc1)c1ccccc1NS(=O)(=O)c1cccs1 | 25.5%
41 | Cc1ccc(C(C(=O)NC2CCCCC2)N(Cc2ccco2)C(=O)C2COc3ccccc3O2)o1 (centres unmarked) | -0.947%
42 | COc1ccc(C(=O)NC2CCN(C(=O)Nc3ccc(F)cc3)CC2)cc1 | -2%
43 | CCOc1cc(/C=C/c2cccc[n+]2C)ccc1OCC(=O)Nc1ccc(C)cc1.[I-] | 7.39%
44 | O=S(=O)(c1ccc(Nc2ccc(-c3ccc4c(c3)OCCO4)nn2)cc1)N1CCCC1 | -3.29%

Row | Structure (SMILES) | hERG current change (%, negative = inhibition) at 1uM
45 | Cc1nn(-c2ccccc2)c(N2CCCC2)c1/C=N/Nc1ccc(S(=O)(=O)Nc2ccccc2)cc1[N+](=O)[O-] | 12.8%
46 | CCOC(=O)N1CCN(C(=O)c2cccc(NC3=NC4CS(=O)(=O)CC4S3)c2)CC1 (centres unmarked) | 8.98%
47 | COCCNC(=O)C1=C(N)C(C(=O)Nc2ccc(C)c(S(=O)(=O)N3CCCCC3)c2)SC1=Nc1ccc(C)cc1C (centres unmarked) | 10.8%
48 | CCSC1=C(C#N)C(=O)n2c1cc1c2CCCC1 | 3.51%
49 | CCOC(=O)c1sc2nc3n(c(=O)c2c1C)CCC3 | 4.66%
50 | CC1CCc2c(C(=O)Nc3ccc(OC(F)(F)F)cc3)csc2C1 (centres unmarked) | -3.13%
51 | COc1ccc(C(=O)N/C(=C\c2cn(S(=O)(=O)N(C)C)c3ccccc23)C(=O)NCCN2CCOCC2)cc1 | 8.08%
52 | CCCc1cc(=O)oc2cc(OCC(=O)N3CCC(C(=O)O)(c4ccccc4)CC3)ccc12 | 8.14%
53 | CSc1ccccc1NC(=O)Nc1cccc(Cl)c1C | 11.9%
54 | COc1ccc(-n2c(Cc3cccn3C)nnc2SCC(=O)NCC2CCCO2)cc1 (centres unmarked) | 8.84%
55 | COc1ccc(Cn2c(O)c(/C=N/NC(=O)c3ccncc3)c(=O)[nH]c2=O)cc1 | 14.3%
56 | COc1ccc(CN(C)C(=O)Cn2ccc(NC(=O)OCc3ccccc3)nc2=O)cc1OC | 7.41%
57 | COc1cc(/C=C2/NC(=O)NC2=O)cc(Br)c1OCc1cccc(C(=O)O)c1 | 13.3%
58 | N#CCCn1nnc2ccccc21 | 11%
59 | C=CCn1c(SC(F)F)nc2scc(-c3ccco3)c2c1=O | 15.7%
60 | N#C/C(=C(/O)c1ccc(Cl)cc1)c1nc2ccccc2[nH]1 | 10.1%
61 | O=C(NCCC1=CCCCC1)c1ccc(Cl)c(S(=O)(=O)Nc2ccccc2)c1 | 14.8%
62 | Cc1ccccc1NC(=O)Nc1c(C)n(C)n(-c2ccccc2)c1=O | -9.17%
63 | CCOC(=O)c1cc2c(nc1NC(=S)Nc1ccccc1)CC(C)(CC)OC2 (centres unmarked) | 12.6%
64 | CC(C)(C)c1cccc(Oc2nn[nH]n2)c1 | 5.23%
65 | CC1(C)CC(=O)c2c(oc3cc(O)c(O)cc23)C1 | 9.92%
66 | CCOC(=O)C1=C(C)N(C)C(=S)NC1c1ccccc1Cl (centres unmarked) | 10.7%

Row | Structure (SMILES) | hERG current change (%, negative = inhibition) at 1uM
67 | CCOC(=O)CCS(=O)(=O)c1ccc(-c2ccc(S(=O)(=O)CCC(=O)OCC)cc2)cc1 | -4.99%
68 | COc1cccc(CNC(=O)C2CCC(CNc3nc(=S)[nH]c4ccccc34)CC2)c1 (centres unmarked) | -4.24%
69 | COc1ccc(-n2c(SC3CCOC3=O)nc3ccccc3c2=O)cc1OC (centres unmarked) | 4.4%
70 | Cc1cc(OCC(=O)NC2CC(C)(C)NC(C)(C)C2)c(C)cc1Br | -1.02%
71 | Cn1c(SCC(=O)Nc2ccc3c(c2)OCCO3)nnc1-c1ccco1 | 10.9%
72 | Cn1c2ccccc2c2nnc(N/N=C/c3ccc(O)cc3)nc21 | 17.1%
73 | O=C(COC(=O)C1CCC1)Nc1ccc(OC(F)F)cc1 | 9.3%
74 | O=C(COc1ccccc1)NCCS(=O)(=O)N1CCN(c2ccccc2)CC1 | 9.21%
75 | CCOc1ccc(Nc2ccc(N3C(=O)CCC3=O)cc2[N+](=O)[O-])cc1 | 9.18%
76 | Cc1[nH]c2ccc(OC(F)(F)F)cc2c1CCN1C(=O)c2ccc(C(=O)O)cc2C1=O | 23.8%
77 | CCN(CC)S(=O)(=O)c1ccc2oc(C(=O)NCCN3CCOCC3)c(C)c2c1 | 9.07%
78 | C=CCC1c2cccc(C(=O)O)c2C(=O)N1c1cccc(C)c1 (centres unmarked) | 11.5%
79 | COc1ccc2c(c1O)[C@]13CCN(C)[C@H](C2)[C@@H]1CCC(=O)C3 | 3.05%
80 | CSc1ccc(-c2cccc([N+](=O)[O-])c2)nn1 | 8.09%
81 | Cc1ccc(OCCCCn2cnc3ccccc32)c(C)c1.O=C(O)C(=O)O | -5.2%
82 | CCN(Cc1ccccc1)S(=O)(=O)c1ccc2c(c1)NC(=O)CS2 | -7.74%
83 | CCn1c(SCC(=O)N2CCCC2)nnc1-c1ccc(S(=O)(=O)N2CCCCCC2)cc1 | 3.58%
84 | COc1ccccc1NC(=O)/C(=C\c1cccnc1)NC(=O)c1ccccc1 | -35.7%
85 | O=C(N1CCOCC1)N1CCN(C(c2ccccc2)c2ccccc2)CC1 | 22.1%
86 | Cc1ccc2cc3cc(C(=O)NCCCN4CC(C)CC(C)C4)oc3nc2c1 (centres unmarked) | -10.5%
